{
  "source": "PubChem BioAssay AID651820",
  "about": "(National Center for Advancing Translational Sciences (NCATS), 2012)",
  "note": "Hit rate of the full screen: of about 340,000 compounds, about 12,000 (3.5%) were called active. The inconclusive results got no clear call from the source; some entries with a clear call stand among them for comparison. Calls come from the whole dose curve; as a rule, active = well fitted inhibition curve with a large enough effect; inconclusive = small, poorly fitted or top-dose-only effect, or another doubt; inactive = no such curve, though single readings can be large or run the other way. No potency is given beside an inconclusive call; the fits are too rough. % is set by controls: 0 for no effect and ±100 for the full control effect; potency is the fitted concentration of half-maximal effect; tags give direction and shape of the fitted curve.",
  "data": [
    {"test": "qHTS Assay for Inhibitors of Hepatitis C Virus (HCV)", "settings": "Huh7.5.1 HCVcc-Cre (HCVcc is cell-culture hepatitis C virus) infection, luciferase reporter, 44 h; activity change, negative = inhibition: at 41.8 µM (top of the series) unless noted", "summary_of_the_method": "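1,000 cells/well; 4 h culture; + compound; + HCVcc-Cre (~0.5 moi); 44 h; luciferase substrate, RT 15 min; read 15 sec.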", "values": [
      {"smiles": "CN(CC(=O)Nc1cccc(C(F)(F)F)c1)C1=NS(=O)(=O)c2ccccc21", "Potency": "inconclusive [inhibitor, single point]"},
      {"smiles": "CN(C)CCCn1c(SCC(=O)Nc2nc(-c3cccc(Br)c3)cs2)nc2ccccc2c1=O", "Potency": "active: 10 µM"},
      {"smiles": "COC(=O)c1[nH]c2cc(OC)ccc2c1NC(=O)CCN1CCSCC1", "activity change, negative = inhibition": "inactive: -0.821%"},
      {"smiles": "C/C(=N\\NC(=O)c1nn(C)c(C)c1Br)c1ccc(NC(=O)c2ccc(C)s2)cc1", "Potency": "inconclusive [inhibitor, full curve]"},
      {"smiles": "O=C(NC1CCCN(Cc2ccc(Cl)cc2)C1)C1CCC1", "note": "(stereo not given)", "activity change, negative = inhibition": "inactive: 6.59%"},
      {"smiles": "COC(=O)c1ccccc1NC(=O)CN(C)S(=O)(=O)c1ccc(OC)c(C)c1", "Potency": "inconclusive [inhibitor, partial curve]"},
      {"smiles": "O=C1/C(=C/c2ccncc2)N2CCC1CC2", "activity change, negative = inhibition": "inactive: -11.6%"},
      {"smiles": "O=C(CSc1nnc(CNC(=O)c2ccccc2)o1)c1ccc(Cl)cc1", "Potency": "inconclusive [inhibitor, single point]"},
      {"smiles": "COc1ccccc1N1CCN(C(=O)CC(NC(=O)c2ccccc2Cl)c2ccccc2)CC1", "note": "(stereo not given)", "Potency": "inconclusive [inhibitor, partial curve]"},
      {"smiles": "C=C(Br)CN1CCN(CC(=C)Br)CC1", "Potency": "inconclusive [inhibitor, single point]"},
      {"smiles": "C=CCNc1nc(Nc2ccc([N+](=O)[O-])cc2)nc(N2CCCC2)n1", "Potency": "inconclusive [inhibitor, single point]"},
      {"smiles": "CCOc1ccc(C(=O)COC(=O)c2cc([N+](=O)[O-])ccc2N2CCOCC2)cc1", "Potency": "inconclusive [inhibitor, full curve, poor fit]"},
      {"smiles": "COc1ccc(-c2noc(-c3ccccc3C(=O)N3CCOCC3)n2)cc1", "Potency": "inconclusive [inhibitor, partial curve]"},
      {"smiles": "Cc1ccc(S(=O)(=O)N2CCN(C(=O)Cc3sc(C)nc3-c3ccc(F)cc3)CC2)c(C)c1", "Potency": "inconclusive [inhibitor, partial curve]"},
      {"smiles": "COc1ccc2c(c1)O[C@H](c1ccc3c(c1)OCO3)[C@@H](OC(=O)N[C@H]1CCCc3ccccc31)C2=O", "activity change, negative = inhibition": "inactive: -28.3%"},
      {"smiles": "CCc1ccc(NC(=O)CSc2nc3nc(C)cc(C)n3n2)cc1", "Potency": "inconclusive [inhibitor, single point]"},
      {"smiles": "CCCN(CCC)C(=O)c1ccc2c(c1)S(=O)(=O)c1ccccc1C2=O", "activity change, negative = inhibition": "inactive: -6%"},
      {"smiles": "O=C1Nc2ccccc2/C1=N/N=C/c1ccc(-c2ccc([N+](=O)[O-])cc2)o1", "activity change, negative = inhibition": "inactive: 1.92%"},
      {"smiles": "Cc1nc(C)c(-c2ccc(SCc3ccccc3C)nn2)s1", "Potency": "inconclusive [inhibitor, single point]"},
      {"smiles": "O=C(CN1C(=O)NC2(CCCC2)C1=O)OCc1ccc(Br)cc1", "Potency": "inconclusive [inhibitor, full curve, poor fit]"},
      {"smiles": "C/C(=N\\NC(=O)Cc1csc(N2CCOCC2)n1)c1ccc(Cl)c(Cl)c1", "Potency": "inconclusive [inhibitor, single point]"},
      {"smiles": "O=C(NN=Cc1ccccc1O)c1cccc([N+](=O)[O-])c1", "Potency": "active: 7.94 µM"},
      {"smiles": "COc1ccccc1C=NN=Cc1ccccc1O", "activity change, negative = inhibition": "inactive: 1.59%"},
      {"smiles": "Cc1ccc(-c2csc(NC(=O)C3CC(=O)N(Cc4ccco4)C3)n2)cc1", "note": "(stereo not given)", "activity change, negative = inhibition": "inactive: -28.5%"},
      {"smiles": "O=[N+]([O-])c1ccc(Nc2cccc(F)c2)nc1", "Potency": "inconclusive [inhibitor, single point]"},
      {"smiles": "COc1ccc(N2CCN(C(=O)CSc3ncnc4scc(-c5ccc(C)cc5)c34)CC2)cc1", "Potency": "inconclusive [inhibitor, partial curve]"},
      {"smiles": "COc1ccc(CNC(=O)C(C)n2nc(C)n3c(cc4occc43)c2=O)cc1", "note": "(stereo not given)", "activity change, negative = inhibition": "inactive: -18.6%"},
      {"smiles": "Cc1ccccc1Nc1ncnc2c1cnn2-c1ccccc1", "Potency": "active: 11.2 µM"},
      {"smiles": "O=C(c1ccc(S(=O)(=O)Nc2ccc(F)cc2)cc1)N1CCN(c2ccccn2)CC1", "Potency": "inconclusive [inhibitor, single point]"},
      {"smiles": "COc1cccc(O)c1CN1CCCC(C(=O)c2ccccc2SC)C1", "note": "(stereo not given)", "Potency": "inconclusive [inhibitor, single point]"},
      {"smiles": "NC(=O)c1ccccc1NC(=O)CSC1=NCCS1", "activity change, negative = inhibition": "inactive: 5.39%"},
      {"smiles": "O=C(Nc1nc(-c2cccs2)cs1)c1ccc(S(=O)(=O)N2CCCC2)cc1", "Potency": "inconclusive [inhibitor, single point]"},
      {"smiles": "COc1ccc(NC(=O)c2cc(Cl)ccc2NC(=O)c2ccco2)c(OC)c1", "activity change, negative = inhibition": "inactive: -28.7%"},
      {"smiles": "CCOc1ccccc1NC(=O)CSc1nc2ccccc2nc1N1CCOCC1", "Potency": "inconclusive [inhibitor, single point]"},
      {"smiles": "O=C(CSc1nc2ccccc2s1)N1c2ccccc2Sc2ccc(Cl)cc21", "Potency": "inconclusive [inhibitor, single point]"},
      {"smiles": "COc1ccc(C2C(C(=O)N3CCN(C)CC3)c3ccccc3C(=O)N2C2CCCCC2)cc1", "note": "(stereo not given)", "activity change, negative = inhibition": "inactive: -23.2%"},
      {"smiles": "CN(C)C1=NC[C@H](Cc2ccccc2)N1CCc1cccc(F)c1", "activity change, negative = inhibition": "inactive: 1.7%"},
      {"smiles": "CC(OC(=O)CC1Sc2ccccc2NC1=O)C(=O)N(C)Cc1ccccc1", "note": "(stereo not given)", "Potency": "inconclusive [inhibitor, single point]"},
      {"smiles": "COc1ccc2c(CC(=O)OCC(=O)N(C)c3c(N)n(Cc4ccccc4)c(=O)[nH]c3=O)coc2c1", "Potency": "inconclusive [inhibitor, single point]"},
      {"smiles": "Cc1sc2ncnc(NCC3COc4ccccc4O3)c2c1C", "note": "(stereo not given)", "Potency": "inconclusive [inhibitor, full curve]"},
      {"smiles": "O=C(/C=C/c1ccccc1)Nc1cccc(C(=O)N2CCCC2)c1", "Potency": "inconclusive [inhibitor, partial curve]"},
      {"smiles": "CN1CCN(c2ccc(NC(=O)c3sc4ccccc4c3Cl)cc2)CC1", "Potency": "inconclusive [inhibitor, single point]"},
      {"smiles": "CS(=O)c1nc(-c2ccc(Br)cc2)cc(-c2ccccc2)c1C#N", "note": "(stereo not given)", "Potency": "active: 5.01 µM"},
      {"smiles": "Cc1nn(Cc2ccc(Cl)cc2Cl)c(C)c1NC(=O)c1nn(C)cc1Cl", "Potency": "inconclusive [inhibitor, partial curve]"},
      {"smiles": "COc1ccc2cc(CN(CCO)C(=O)c3ccc(Br)cc3)c(=O)[nH]c2c1", "Potency": "inconclusive [inhibitor, single point]"}
    ]}
  ]
}
